# According to patent publication US20100075953A1, “SUBSTITUTED PIPERAZINES, (1,4) DIAZEPINES, AND 2,5-DIAZABICYCLO (2.2.1) HEPTANES AS HISTAMINE H1 AND/OR H3 ANTAGONISTS OR HISTAMINE H3 REVERSE ANTAGONISTS” (Glaxo Group Limited, priority 2002, published 2010):
# Counter-ions that a name gives are not always drawn. Some results were stated once for a whole list of compounds, not compound by compound.
# How the values were obtained:
# human H1 receptor = target: T1, human H1 receptor (Homo sapiens, UniProt P35367); experiment: Histamine H1 functional antagonist assay; format: cell-based; settings: CHO cells expressing human H1, suppression of histamine induced increase in fluorescence (FLIPR)
# T1 construct: expressed in transfected cells
# T1 sequence (P35367 whole entry): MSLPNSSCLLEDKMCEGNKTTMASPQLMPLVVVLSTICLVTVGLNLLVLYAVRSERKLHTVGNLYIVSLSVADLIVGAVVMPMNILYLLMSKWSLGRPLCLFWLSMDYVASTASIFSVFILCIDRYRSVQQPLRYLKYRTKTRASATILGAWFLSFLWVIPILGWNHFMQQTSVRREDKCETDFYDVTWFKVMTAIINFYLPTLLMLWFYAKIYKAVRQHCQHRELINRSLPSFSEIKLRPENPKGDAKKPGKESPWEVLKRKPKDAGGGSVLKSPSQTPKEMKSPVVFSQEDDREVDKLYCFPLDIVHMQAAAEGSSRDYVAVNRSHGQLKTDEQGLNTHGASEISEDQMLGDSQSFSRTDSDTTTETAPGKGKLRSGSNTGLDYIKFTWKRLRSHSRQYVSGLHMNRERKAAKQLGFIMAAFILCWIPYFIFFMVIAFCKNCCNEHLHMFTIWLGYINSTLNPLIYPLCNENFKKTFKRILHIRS
# histamine H3 receptor = histamine H3 receptor (Homo sapiens, UniProt Q9Y5N1); experiment: Histamine H3 functional antagonist assay; settings: membranes of CHO K1 cells expressing human H3; [35S]GTPgammaS SPA; histamine 0.3 μM
# Chain of histamine H3 receptor (Q9Y5N1 whole entry): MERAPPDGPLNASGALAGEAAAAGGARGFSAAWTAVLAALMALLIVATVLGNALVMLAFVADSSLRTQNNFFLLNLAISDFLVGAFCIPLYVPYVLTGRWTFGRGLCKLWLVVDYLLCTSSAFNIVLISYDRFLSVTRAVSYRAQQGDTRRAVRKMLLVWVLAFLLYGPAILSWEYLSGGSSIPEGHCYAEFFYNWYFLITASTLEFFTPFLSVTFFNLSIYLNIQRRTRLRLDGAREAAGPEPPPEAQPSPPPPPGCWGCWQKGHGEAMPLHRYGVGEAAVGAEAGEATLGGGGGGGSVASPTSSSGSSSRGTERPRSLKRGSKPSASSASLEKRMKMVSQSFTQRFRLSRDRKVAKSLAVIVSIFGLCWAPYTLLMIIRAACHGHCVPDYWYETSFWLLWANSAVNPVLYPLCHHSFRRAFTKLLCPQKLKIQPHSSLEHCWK
SMILES,antagonism in the histamine H1 functional antagonist assay (pKb) (human H1 receptor),antagonism in the histamine H3 functional antagonist assay (pKb) (histamine H3 receptor),also measured
"O=S(=O)(c1cccc2ccccc12)N1CCN(c2ccc(OCCCN3CCCCC3)cc2)CC1 [Example E246, 1-(Naphthalen-1-ylsulfonyl)-4-[4-(3-piperidin-1-ylpropoxy)phenyl]piperazine]",> 6.5,> 6.5,–
CCC1CCC(C)N(CCCOc2ccc(N3CCN(C(=O)c4ccc(F)cc4C(F)(F)F)CC3)cc2)C1 (stereo not shown) [Example E139],> 6.5,> 6.5,–
CCSc1cccc(C(=O)N2CCN(c3ccc(OCCCN4CCCC(C)C4)cc3)CC2)c1 (stereo not shown) [Example E191],> 6.5,> 6.5,–
"Cc1ccc(C(C)C)cc1C(=O)N1CCN(c2ccc(OCCCN3CCCCCC3)cc2)CC1 [Example E502, 1-(3-{4-[4-(5-Isopropyl-2-methylbenzoyl)piperazin-1-yl]phenoxy}propyl)azepane]",> 7.3,> 6.5,antagonism in the histamine H1 functional antagonist assay (pKb) (human H1 receptor; listed as Example E502): > 6.5 pKb
O=C(O)C(F)(F)F.O=C(c1cccc2ccccc12)N1CCN(c2ccc(OCCCN3CCCCCC3)cc2)CC1 [Example E65],> 7.3,> 6.5,antagonism in the histamine H1 functional antagonist assay (pKb) (human H1 receptor; listed as Example E65): > 6.5 pKb
"O=C(c1cccc2ccccc12)N1CCN(c2ccc(OCCCN3CCCCC3)cc2)CC1 [Example E63, 1-(1-Naphthoyl)-4-[4-(3-piperidin-1-ylpropoxy)phenyl]piperazine trifluoroacetate]",> 6.5,> 6.5,–
CN(CCCOc1ccc(N2CCN(C(=O)c3cccc(Cl)c3Cl)CC2)cc1)C1CCCC1 [Example E187],> 6.5,> 6.5,–
CCCc1ccc(C)c(C(=O)N2CCN(c3ccc(OCCCN4CC(CC)CCC4C)cc3)CC2)c1 (stereo not shown) [Example E146],> 6.5,> 6.5,–
COc1ccc(C(=O)N2CCN(c3ccc(OCCCN4CCCC4C)cc3)CC2)cc1C(C)C (stereo not shown) [Example E124],> 6.5,> 6.5,–
CCSc1cccc(C(=O)N2CCN(c3ccc(OCCCN(C)C4CCCC4)cc3)CC2)c1 [Example E175],> 6.5,> 6.5,–
CC1CCCN(CCCOc2ccc(CCN3CCN(C(=O)c4cccc5ccccc45)CC3)cc2)C1.O=CO (stereo not shown) [Example E466],> 7.3,> 6.5,antagonism in the histamine H1 functional antagonist assay (pKb) (human H1 receptor; listed as Example E466): > 6.5 pKb
C=Cc1cccc(C(=O)N2CCN(c3ccc(OCCCN4CCCCC4)cc3)CC2)c1 [Example E87],> 7.3,> 6.5,antagonism in the histamine H1 functional antagonist assay (pKb) (human H1 receptor; listed as Example E87): > 6.5 pKb
"Cc1cc(OCCCN2CCCCC2)ccc1N1CCN(C(=O)c2cccc3ccccc23)CC1 [Example E227, 1-(2-Methyl-4-{[3-(1-piperidinyl)propyl]oxy}phenyl)-4-(1-naphthalenylcarbonyl)piperazine]",> 6.5,> 6.5,–
CC1CCCN(CCCOc2ccc(N3CCN(C(=O)c4cccc(Cl)c4Cl)CC3)cc2)C1 (stereo not shown) [Example E205],> 6.5,> 6.5,–
"CCc1ccc(C)c(C(=O)N2CCN(c3ccc(OCCCN4CCCCCC4)cc3)CC2)c1 [Example E503, 1-(3-{4-[4-(5-Ethyl-2-methylbenzoyl)piperazin-1-yl]phenoxy}propyl)azepane]",> 7.3,> 6.5,antagonism in the histamine H1 functional antagonist assay (pKb) (human H1 receptor; listed as Example E503): > 6.5 pKb
Cc1ccc(C)c(C(=O)N2CCN(c3ccc(OCCCN4CCCC(C)(C)C4)cc3)CC2)c1.O=C(O)C(F)(F)F [Example E219],> 7.3,> 6.5,antagonism in the histamine H1 functional antagonist assay (pKb) (human H1 receptor; listed as Example E219): > 6.5 pKb
Cn1cc(C(=O)N2CCN(c3ccc(OCCCN4CCCCC4)cc3)CC2)c2cc(Br)ccc21.O=CO [Example E59],> 6.5,> 6.5,–
c1cnc2c(N3CCN(CCc4ccc(OCCCN5CCCCCC5)cc4)CC3)cccc2c1 [Example E238],> 6.5,> 6.5,–
CC1(C)CCCN(CCCOc2ccc(N3CCN(C(=O)c4cccc(C(F)(F)F)c4)CC3)cc2)C1.O=C(O)C(F)(F)F [Example E218],> 7.3,> 6.5,antagonism in the histamine H1 functional antagonist assay (pKb) (human H1 receptor; listed as Example E218): > 6.5 pKb
Cc1cc2ccnc(C(=O)N3CCN(c4ccc(OCCCN5CCCCC5)cc4)CC3)c2o1 [Example E96],> 6.5,> 6.5,–
CCC1CCC(C)N(CCCOc2ccc(N3CCN(C(=O)c4cc(C)ccc4OC)CC3)cc2)C1 (stereo not shown) [Example E132],> 6.5,> 6.5,–
"O=C(c1cccc2ccccc12)N1CCN(CCc2ccc(OCCN3CCCCC3)cc2)CC1 [Example E475, 1-(1-Naphthalenylcarbonyl)-4-[2-(4-{[2-(1-piperidinyl)ethyl]oxy}phenyl)ethyl]piperazine]",> 6.5,> 6.5,–
CCC1CCC(C)N(CCCOc2ccc(N3CCN(C(=O)c4cccc(Br)c4)CC3)cc2)C1 (stereo not shown) [Example E141],> 6.5,> 6.5,–
CCC1CCC(C)N(CCCOc2ccc(N3CCN(C(=O)c4ccc(/C=C/C(=O)OC)cc4)CC3)cc2)C1 (stereo not shown) [Example E130],> 6.5,> 6.5,–
"COc1ccc(C)cc1CN1CCN(c2ccc(OCCCN3CCCCC3)cc2)CC1 [Example E228, 1-{[5-Methyl-2-(methyloxy)phenyl]methyl}-4-(4-{[3-(1-piperidinyl)propyl]oxy}phenyl)piperazine formate]",> 6.5,> 6.5,–
CN(CCCOc1ccc(N2CCN(C(=O)c3ccc4c(c3)CCCC4)CC2)cc1)C1CCCC1 [Example E185],> 6.5,> 6.5,–
CC1(C)CCCN(CCCOc2ccc(N3CCN(C(=O)c4ccc(S(C)(=O)=O)cc4)CC3)cc2)C1.O=C(O)C(F)(F)F [Example E213],> 6.5,> 6.5,–
